Experimental data: the supplement of paper PMC8728848
The list shows a part of the results.

Legend:
Assay in all cases: glycan array binding signal (z-score within array); higher = stronger binding
Settings in all cases: glycan notation: IUPAC condensed, linker removed
[1] = target: Glc(b1-4)Glc(b1-4)Glc(b1-3)Glc
How it was run: (§1)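 The binding signal is a Z-score computed within each array. Data were drawn from 3228 arrays in the Consortium for Functional Glycomics database, restricted to those with a known protein sequence. Scores were averaged over arrays of the same protein sequence at different concentrations or buffers, and over linkers, and negative values can be taken as non-binding.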

[2] = target: Glc(b1-4)Glc(b1-4)Glc(b1-3)Glc(b1-4)Glc(b1-4)Glc(b1-3)Glc
How it was run: as §1

[3] = target: Glc(b1-4)Glc(b1-4)Glc(b1-4)Glc
How it was run: as §1

[4] = target: Glc(b1-4)Glc(b1-4)Glc(b1-4)Glc(b1-3)Glc
How it was run: as §1

[5] = target: Glc(b1-4)Glc(b1-4)Glc(b1-4)Glc(b1-4)Glc
How it was run: as §1

[6] = target: Glc(b1-4)Glc(b1-4)Glc(b1-4)Glc(b1-4)Glc(b1-4)Glc
How it was run: as §1

[7] = target: Glc(b1-4)Glc(b1-4)Glc(b1-4)Glc(b1-4)Glc(b1-4)Glc(b1-4)Glc
How it was run: as §1

[8] = target: Glc(b1-4)Glc(b1-4)Glc(b1-4)Glc(b1-4)Glc(b1-4)Glc(b1-4)Glc(b1-4)Glc
How it was run: as §1

[9] = target: Glc(b1-4)Glc(b1-4)Glc(b1-4)Glc(b1-4)Glc(b1-4)Glc(b1-4)Glc(b1-4)Glc(b1-4)Glc
How it was run: as §1

[10] = target: Glc(b1-4)Glc(b1-4)Glc(b1-4)Glc(b1-4)Glc(b1-4)Glc(b1-4)Glc(b1-4)Glc(b1-4)Glc(b1-4)Glc
How it was run: as §1

[11] = target: Glc(b1-4)Glc(b1-4)Glc(b1-4)Glc(b1-4)Glc(b1-4)Glc(b1-4)Glc(b1-4)Glc(b1-4)Glc(b1-4)Glc(b1-4)Glc
How it was run: as §1

[12] = target: Glc(b1-4)Glc(b1-4)Glc(b1-4)Glc(b1-4)Glc(b1-4)Glc(b1-4)Glc(b1-4)Glc(b1-4)Glc(b1-4)Glc(b1-4)Glc(b1-4)Glc
How it was run: as §1

[13] = target: Glc(b1-4)Glc(b1-4)Glc(b1-4)Glc(b1-4)Glc(b1-4)Glc(b1-4)Glc(b1-4)Glc(b1-4)Glc(b1-4)Glc(b1-4)Glc(b1-4)Glc(b1-4)Glc
How it was run: as §1

Glc(b1-6)Glc = target: Glc(b1-6)Glc
How it was run: as §1

Glc(b1-6)Glc(b1-6)Glc = target: Glc(b1-6)Glc(b1-6)Glc
How it was run: as §1

[14] = target: Glc(b1-6)Glc(b1-6)Glc(b1-6)Glc
How it was run: as §1

[15] = target: Glc(b1-6)Glc(b1-6)Glc(b1-6)Glc(b1-6)Glc
How it was run: as §1

[16] = target: Glc(b1-6)Glc(b1-6)Glc(b1-6)Glc(b1-6)Glc(b1-6)Glc
How it was run: as §1

[17] = target: Glc(b1-6)Glc(b1-6)Glc(b1-6)Glc(b1-6)Glc(b1-6)Glc(b1-6)Glc
How it was run: as §1

[18] = target: Glc(b1-6)Glc(b1-6)Glc(b1-6)Glc(b1-6)Glc(b1-6)Glc(b1-6)Glc(b1-6)Glc
How it was run: as §1

[19] = target: Glc(b1-6)Glc(b1-6)Glc(b1-6)Glc(b1-6)Glc(b1-6)Glc(b1-6)Glc(b1-6)Glc(b1-6)Glc
How it was run: as §1

[20] = target: Glc(b1-6)Glc(b1-6)Glc(b1-6)Glc(b1-6)Glc(b1-6)Glc(b1-6)Glc(b1-6)Glc(b1-6)Glc(b1-6)Glc
How it was run: as §1

[21] = target: Glc(b1-6)Glc(b1-6)Glc(b1-6)Glc(b1-6)Glc(b1-6)Glc(b1-6)Glc(b1-6)Glc(b1-6)Glc(b1-6)Glc(b1-6)Glc
How it was run: as §1

[22] = target: Glc(b1-6)Glc(b1-6)Glc(b1-6)Glc(b1-6)Glc(b1-6)Glc(b1-6)Glc(b1-6)Glc(b1-6)Glc(b1-6)Glc(b1-6)Glc(b1-6)Glc(b1-6)Glc(b1-6)Glc(b1-6)Glc
How it was run: as §1

[23] = target: Man(b1-4)Man(b1-4)Man(b1-4)Man
How it was run: as §1

[24] = target: Man(b1-4)Man(b1-4)Man(b1-4)Man(b1-4)Man
How it was run: as §1

[25] = target: Man(b1-4)Man(b1-4)Man(b1-4)Man(b1-4)Man(b1-4)Man
How it was run: as §1

[26] = target: Xyl(b1-4)Xyl(b1-4)Xyl(b1-4)Xyl(b1-4)Xyl
How it was run: as §1

[27] = target: Xyl(b1-4)Xyl(b1-4)Xyl(b1-4)Xyl(b1-4)Xyl(b1-4)Xyl
How it was run: as §1

B1: laminarinase (Bacillus halodurans), Q9KBL8 (protein)
chain: EETIELEGEVIPARLLSTKVKALNYDDYHNVLIDRCVEGGESIRGLGDGSWIAFHDINLEQPTNLLTVRAANENKQAVLEIRADRVDGPLVSQSVIPPTGGLQAWTTVTAQVNGETSEIRDLYLVFKGEFQLSWFSFS
glycan array binding signal (z-score) [1]: -0.529
glycan array binding signal (z-score) [2]: -0.15
glycan array binding signal (z-score) [3]: -0.528
glycan array binding signal (z-score) [4]: -0.37
glycan array binding signal (z-score) [5]: -0.572
glycan array binding signal (z-score) [6]: -0.642
glycan array binding signal (z-score) [7]: -0.496
glycan array binding signal (z-score) [8]: -0.428
glycan array binding signal (z-score) [9]: 0.181
glycan array binding signal (z-score) [10]: -0.077
glycan array binding signal (z-score) [11]: -0.21
glycan array binding signal (z-score) [12]: -0.396
glycan array binding signal (z-score) [13]: -0.207
glycan array binding signal (z-score) (Glc(b1-6)Glc): -0.615
glycan array binding signal (z-score) (Glc(b1-6)Glc(b1-6)Glc): -0.537
glycan array binding signal (z-score) [14]: -0.324
glycan array binding signal (z-score) [15]: -0.093
glycan array binding signal (z-score) [16]: -0.163
glycan array binding signal (z-score) [17]: -0.284
glycan array binding signal (z-score) [18]: -0.242
glycan array binding signal (z-score) [19]: -0.157
glycan array binding signal (z-score) [20]: 0.093
glycan array binding signal (z-score) [21]: -0.361
glycan array binding signal (z-score) [22]: 0.097
glycan array binding signal (z-score) [23]: -0.687
glycan array binding signal (z-score) [24]: -0.67
glycan array binding signal (z-score) [25]: -0.682
glycan array binding signal (z-score) [26]: -0.525
glycan array binding signal (z-score) [27]: -0.466
